Assay results from PubChem BioAssay AID1671194 (National Center for Advancing Translational Sciences (NCATS), 2021).
Screen size: about 140,000 compounds; about 240 (0.17%) were called active. The shares of active, inactive and inconclusive entries below differ from those in the screen. The call rests on the fitted dose curve; in most records, active means well fitted inhibition curve with a large enough effect; inconclusive means small, poorly fitted or top-dose-only effect; inactive means no such curve, though single readings can be large or run the other way. A potency beside an inconclusive call is a rough fit, not a confirmed value.

assay: Primary qHTS assay for inhibitors of alpha-synuclein gene (SNCA) expression; settings: HEK-293 SNCA-luciferase knock-in, luminescence, 24 h; series mostly up to 57.2 µM; further: nearly all actives have a fitted effect of over 45% in size
From the text: Assay Submitter (PI): Daniel R. Scoles Ph.D.
Department of Neurology, University of Utah, Salt Lake City, Utah
Accumulation of alpha-synuclein is a main underlying pathological feature of Parkinson's disease (PD) and alpha-synucleinopathies, for which lowering expression of the alpha-synuclein gene (SNCA) is a potential therapeutic avenue. Using a cell-based luciferase reporter of SNCA expression we performed a quantitative high throughput screen (qHTS) of 155,885 compounds in dose response. The screening assay was generated using genome editing to insert the luciferase gene downstream and in frame of the SNCA gene in HEK-293 cells (1). A viability counterscreen using GF-AFC was used to eliminate cytotoxic and false positive compounds. After in silico analysis (clustering, removal of frequent hitter nuisance chemotypes), inhibitor compounds from the primary screen were selected for follow up and re-tested at 11-doses in the SNCA-luc cells (luciferase and GF-AFC confirmation), and in CMV-luc expressing cell line to flag general transcriptional repressors.
Described herein are the results of the primary screen for SNCA inhibitors; decrease in luciferase signal (inhibition of the SNCA gene expression) is the desired output for this assay.
1. Dansithong, W., Paul, S., Scoles, D. R., Pulst, S. M., and Huynh, D. P. (2015) Generation of SNCA Cell Models Using Zinc Finger Nuclease (ZFN) Technology for Efficient High-Throughput Drug Screening. PLoS ONE 10, e0136930.
SEQUENCE No. (e.g., 1, 2, 3, etc.); […] (e.g., Cells, Incubation, Reagent, etc.); VALUE; DESCRIPTION
1; Cells; 4 uL; Dispense 1500 HEK-293-SNCA-luc cells/well into Greiner 1536-well white / solid bottom tissue culture treated plate. The plate was covered with metal lids with gas-exchange holes.
2; Incubate; 24 hours; Incubate at 37C, 5% CO2, 95% RH.
3; Compounds; 23 nL; Compounds and controls were transferred via a Kalypsys Pin Tool (Wako USA) equipped with a 1536-slotted pin array. The plate was covered with metal lids with gas-exchange holes.
4; Incubate; 24 hours; Incubate at 37C, 5% CO2, 95% RH.
5; Dispense; 1 uL; Dispense Gly-Phe-7-amino-4-trifluoromethylcoumarin (GF-AFC, prepared at 125 uM in PBS) was added. The plate was covered with metal lids with gas-exchange holes.
6; Incubate; 30 min; Incubate at 37C, 5% CO2.
7; Detector; Fluorescence; Measure fluorescence with ViewLux microplate reader (PerkinElmer) equipped with 405/10 excitation and 540/25 emission filters.
8; Dispense; 3 uL; Dispense ONE-Glo ([…]) lucifase detection reagent was added to each well. Plates were covered with metal lids with gas-exchange holes.
9; Incubate; 15 min; Incubate at room temperature.
10; Detector; Luminescence; Measure luminescence with ViewLux microplate reader (PerkinElmer) equipped with clear filters.
NOTES (numbers refer to sequence above)
1; HEK-293-SNCA-luc were cultured and suspended in phenol-red free DMEM (4.5 g/L glucose, 25 mM HEPES, cat #21063 (Thermo)).
3; Compounds were added to the assay plate in an 11-point intra plate dose response, 1:3 titration in DMSO with a final concentration range of […]. Vehicle-only plates, with DMSO being pin-transferred to every well, were inserted at the beginning of screening runs to confirm expected assay performance. Activity was normalized to wells containing medium only (-100% activity, full inhibition) and SNCA-luc cells treated with DMSO vehicle control (0% activity), contained on the same plate as test samples.
10; Signals were analyzed, and dose-response curves were fit using the Hill equation. Compounds in curve classes -1.1, -1.2, -2.1, -2.2 in the SNCA-luc assay were considered active. Compounds were eliminated from further consideration if also active (curve class -1.1, -1.2, -1.3, -1.4, -2.1, -2.2, -2.3, -2.4) in the GF-AFC cytotoxicity assay.
Potency means the concentration at half of the fitted maximal effect; tags describe the fitted curve by direction and shape.

Potency, inactive:
CCCc1nnc(C[C@@H]2C[C@@H](C(C)C)[C@H](CNc3cccnc3)C=C2C)o1
c1csc(CNC[C@H]2Cn3cc(-c4ccc5c(c4)OCCCO5)nc3CO2)n1
O=C(c1ccn[nH]1)N1CCC2(CC1)CC(N1CCN(c3ccccn3)CC1)CCO2 (stereo not given)
COc1ccc(C2(C(=O)N3CCCC3c3nc(C4CCOCC4)no3)CC2)cc1 (stereo not given)
Cc1cc(NC(=O)c2ccc3c(c2)OCCN(C2CCC2)C3)ccc1F
CCOc1ccc(-c2cc(CCCC(=O)NCCc3ccc(Cl)cc3)no2)cc1
O=C(NCc1ccc(F)cc1)c1ccc2oc(-c3ccncc3)nc2c1
Cc1ccc(NC(=O)N2CC(n3cc(C(=O)NCc4ccncc4)nn3)C2)cc1C
O=C(CC(F)(F)F)N1CCC(c2noc(-c3cccnc3)n2)C1 (stereo not given)
CS(=O)(=O)N(Cc1cccnc1)C1CN(C(=O)Nc2ccc3c(c2)OCCO3)C1
CCOc1ccccc1C(=O)N[C@@H]1CN(c2ccncn2)C[C@H]1CO
Cc1cnc(C2CC2)n1CCNC(=O)C1CC1
CCN1c2cc(C(=O)N3CCN(c4ccccc4F)CC3)ccc2C(=O)N2CCCCC21 (stereo not given)
O=C1CC(c2ccccc2)N(Cc2ccncc2)CCCN(S(=O)(=O)c2cccnc2)CCN1 (stereo not given)
COc1ccc(N2CCN(C(=O)Cn3c(-c4ccc(F)cc4)nc(C)cc3=O)CC2)cc1
COc1cc(F)ccc1-c1nc(-c2c(C)noc2C)cc2cc(C)oc12
Cc1ccccc1C(=O)NCc1nnc2c(-c3nc(C(C)C)no3)cccn12
CCc1noc(-c2cn(C3CCN(C(=O)c4cccc(C#N)c4)CC3)nn2)n1
Cc1ccsc1/C=C/C1=NCCCN1C
O=C(c1cc(-c2ccc(Cl)cc2Cl)c2nncn2n1)N1CCCCC1
Cc1ccc(S(=O)(=O)N2CCc3nc4cc[nH]n4c(=O)c3C2)cc1C
COc1ccc(CCC(=O)NCc2ccc3c(c2)CCN3C(=O)c2ccc(Cl)cc2)cc1

Potency, active:
COc1ccc(NC(=O)CCS(=O)(=O)c2nc(-c3cccs3)cc(C(F)(F)F)n2)cc1 35.5 µM
O=C(CN1C(=O)COc2ccc(S(=O)(=O)N3CCCCCC3)cc21)Nc1cccc(Cl)c1 10 µM

Potency, inconclusive:
O=C(Nc1cc(F)ccc1Cl)c1cnc(-c2ccccc2)nc1-c1ccncc1 0.708 µM [inhibitor, partial curve, poor fit]
O=C(c1ccc2c(c1)OCCO2)N(Cc1cccnc1)c1nc2c(Cl)cccc2s1 39.8 µM [inhibitor, single point]
COc1ccc(-n2c(Cc3ccccc3)nnc2SCc2nc(-c3cccs3)no2)cc1 25.1 µM [inhibitor, single point]
CCc1ccc(NS(=O)(=O)c2ccc3oc(=O)c4ncn(CC)c4c3c2)cc1 39.8 µM [inhibitor, single point]
CN(CC(=O)NCc1ccc(Cl)cc1)S(=O)(=O)c1ccc2[nH]c3c(c2c1)CCCC3 28.2 µM [inhibitor, single point]
Cc1noc(C)c1[S+](=O)([O-])N1CCC2(C1)C(=O)N(CCc1ccccc1)c1ccccc12 (stereo not given) 8.91 µM [inhibitor, single point]
COC[C@@H]1CN(C(=O)c2ccc3ncccc3c2)C[C@H]1c1ccncc1 14.1 µM [inhibitor, partial curve]
O=C1Nc2ccc(-c3cccc(C(F)(F)F)c3)cc2C(=O)N2CCN(C(=O)NC3CCCCC3)C[C@H]12 12.6 µM [inhibitor, partial curve, poor fit]
CCC(CC)C(=O)N1CC[C@@H]2COCCN(Cc3cccnc3)[C@@H]2C1 39.8 µM [inhibitor, single point]
CC(C)Oc1ccc(CNC(=O)c2ccc(CS(=O)c3cccc(Cl)c3)o2)cc1 (stereo not given) 2.82 µM [inhibitor, single point]
CC(C)c1cc(C(=O)N[C@@H]2COCC[C@@H]2OCc2cscn2)cs1 4.47 µM [inhibitor, single point]
CC1=C(C(=O)Nc2ccccc2)C(c2ccccc2C)n2nc(SCC(=O)c3ccc(C)cc3)nc2N1 (stereo not given) 7.94 µM [inhibitor, partial curve, poor fit]
COc1ccc(CNC(=O)C(=O)Nc2c3c(nn2-c2ccccc2)CSC3)cc1 31.6 µM [inhibitor, single point]
COc1ccc(Nc2ccc3c(n2)CN(Cc2ccc(C(F)(F)F)cc2)C(=O)CO3)cn1 22.4 µM [inhibitor, single point]
O=C(NCC1CCOCC1)C1c2ccccc2C(=O)N(Cc2ccccc2)C12CCCC2 (stereo not given) 10 µM [inhibitor, partial curve, poor fit]
Cc1cccc(N2CCN(C(=O)C3CCN(C(=O)c4cc5sccc5n4C)CC3)CC2)c1C 39.8 µM [inhibitor, single point]
Cc1ccc(NC(=O)CSc2nc3c([nH]c4ccccc43)c(=O)n2-c2ccccc2)cc1Cl 2.82 µM [inhibitor, partial curve, poor fit]
Cc1[nH]n2c(=O)cc(-c3ccc(Cl)cc3)nc2c1-c1ccccc1 39.8 µM [inhibitor, single point]
CC1Cn2c(C(=O)NCCc3ccc(Cl)cc3)cc3cccc(c32)S1 (stereo not given) 25.1 µM [inhibitor, partial curve, poor fit]
CSc1ccc(C2CC(=O)Oc3c2c(=O)n(C)c2ccccc32)cc1 (stereo not given) 39.8 µM [inhibitor, single point]
COc1ccc(NC(=O)CCS(=O)(=O)c2nc(-c3ccc4c(c3)OCO4)cc(C(F)(F)F)n2)cc1 15.8 µM [inhibitor, single point]
Cc1c(C(=O)N2CCCC2)oc2c1-c1nn(CC(=O)NCc3ccccc3Br)cc1CC2 28.2 µM [inhibitor, partial curve, poor fit]
O=C(c1ccc(C(F)(F)F)cc1)N1CCCC(C(=O)N2CCC(c3nc4ccncc4[nH]3)CC2)C1 (stereo not given) 7.94 µM [inhibitor, single point]
CN(Cc1cnc2nc(N)nc(N)c2n1)c1ccc(C(=O)N[C@@H](CCC(=O)O)C(=O)O)cc1 0.242 µM [inhibitor, full curve, poor fit]
COc1cccc(NC(=O)Cn2c(=O)c(-c3noc(C)n3)c3n(c2=O)CCCCC3)c1 15.8 µM [inhibitor, single point]
Cc1ccc(-n2nc(C)c([C@@H]3C=C[C@@H](NCc4ccc(N(C)C)cc4)C3)c2C)cc1Cl 31.6 µM [inhibitor, single point]
Cn1cccc1C(=O)N1CCC(N2C[C@H](O)C[C@H]2C(=O)NCc2cccnc2)CC1 22.4 µM [inhibitor, single point]
O=C(c1ccc(Cl)cc1)N1CCCC(c2nn(-c3ccc(F)cc3)c(=O)[nH]2)C1 (stereo not given) 0.794 µM [inhibitor, full curve, poor fit]
COC(=O)C[C@H]1CN(C(=O)OC(C)(C)C)CCN1 2.24 µM [inhibitor, full curve, poor fit]
COc1cc(-c2nc(SCC(=O)Nc3ccc(C)cc3)c(-c3ccc(F)cc3)[nH]2)cc(OC)c1OC 22.4 µM [inhibitor, single point]
CNC(=O)[C@@H](C1CC1)N1CCC[C@H]1C(=O)NC(C)C 39.8 µM [inhibitor, single point]
COc1ccc(-c2noc(CCCC(=O)Nc3cccc(Cl)c3C)n2)cc1 2.82 µM [inhibitor, full curve, poor fit]
O=c1cnc2cnc(Nc3ccccc3)nc2n1Cc1cccs1 12.6 µM [inhibitor, partial curve, poor fit]
CC(C)(C(=O)O)c1cnc(N2C[C@@H](CO)[C@H](CO)C2)nc1N1CCOCC1 8.91 µM [inhibitor, single point]
COc1ccc(N(Cc2ccccc2)C(=O)c2nc(S(C)(=O)=O)ncc2Cl)cc1 6.31 µM [inhibitor, full curve, poor fit]
COc1cccc(C(=O)Nc2ccc(-n3nncc3-c3ccccc3)cc2)c1OC 20 µM [inhibitor, single point]
COc1ccc(OC)c(CN2CCNc3cnc(-c4ccccc4)cc3C2)c1 50.1 µM [inhibitor, single point]
Cc1ccc(OCCn2cc(C(=O)c3cccs3)c3ccccc32)cc1 4.47 µM [inhibitor, full curve]
CN1CCCC1c1nc(C2CNC2)no1 (stereo not given) 39.8 µM [inhibitor, single point]
CCc1c(C)sc2c1CCN(Cc1cccc(OC)c1)C2c1ccccc1 (stereo not given) 1.58 µM [inhibitor, partial curve, poor fit]
CCc1ccc(C(=O)CC2(O)C(=O)N(CCc3ccccc3)c3ccc(Br)cc32)cc1 (stereo not given) 39.8 µM [inhibitor, single point]
